In patent US7592316B2, “Peptides as NS3-serine protease inhibitors of hepatitis C virus” (Schering Corporation, priority 2000, dated 2009):
*1 amine or outer side, *2 acyl side, *3 side chain or, on linkers, in order; H or OH if unused. Where a SMILES comes first, the peptide text is derived from it. [ ]: non-standard residue; d: D form. The star is where a group is joined. ξ: configuration not given here. Pro(3R,4S-CMe2) = CC1(C)[C@@H]2[C@@H](C(=O)O)NC[C@@H]21; Pro(trans-3-OtBu) = CC(C)(C)O[C@H]1CCN[C@@H]1C(=O)O; Pro(4R-isopentyl) = CC(C)CC[C@H]1CN[C@H](C(=O)O)C1; Nleψ(COCO) = CCCC[C@H](N[*:1])C(=O)C(=O)[*:2]; X67 = O=C(C(=O)[*:2])C(CC1CC1(F)F)N[*:1]; X33 = CCCC[C@@H](N[*:1])C(=O)C(=O)[*:2]; X19 = CCC[C@@H](N[*:1])C(=O)C(=O)[*:2]; X12 = CCC[C@H](N[*:1])C(=O)C(=O)[*:2]; X32 = O=C(C(=O)[*:2])C(CC1CCC1)N[*:1]; Cyclohexanecarbonyl = O=C(C1CCCCC1)*; Cyclohexylacetyl = O=C(CC1CCCCC1)*; Val(3-OH) = CC(C)(O)[C@H](N)C(=O)O; X4 = CCCCC(N[*:1])C(=O)C(=O)[*:2]; Hyp = O=C(O)[C@@H]1C[C@@H](O)CN1; X2 = CCCC(N[*:1])C(=O)C(=O)[*:2]; Aad = N[C@@H](CCCC(=O)O)C(=O)O; CH2CO2tBu = CC(C)(C)OC(=O)C*; Phg = N[C@H](C(=O)O)c1ccccc1; Tle = CC(C)(C)[C@H](N)C(=O)O; ξChg = NC(C(=O)O)C1CCCCC1; ξPhg = NC(C(=O)O)c1ccccc1; Carboxymethyl = O=C(O)C*; Boc = CC(C)(C)OC(=O)*; ξNle = CCCCC(N)C(=O)O; Bz = O=C(c1ccccc1)*; Bn = c1ccc(C*)cc1; OtBu = CC(C)(C)O*; tBu = CC(C)(C)*

What follows are compounds tested against HCV NS3/NS4A protease (strain 1a) (Hepatitis C virus genotype 1a, UniProt P27958) (assay: biochemical). Details: Compounds prepared by Solid Phase Synthesis, Table 3; read-out: Ki* CLASS.

SMILES	Ki [nM]
CCCC(NC(=O)[C@@H]1C[C@@H](OCc2ccccc2)CN1C(=O)C(NC(=O)c1ccccc1)C1CCCCC1)C(=O)C(=O)NCC(=O)NC(C(N)=O)c1ccccc1 (stereo partly drawn) (Bz-[ξChg][Hyp](Bn)[X2]G[ξPhg]-NH2)	101 to 1000
CCCC(NC(=O)[C@@H]1C[C@@H](OCc2ccccc2)CN1C(=O)[C@H](CCCC(=O)OC(C)(C)C)NC(=O)C1CCCCC1)C(=O)C(=O)NCC(=O)N[C@H](C(N)=O)c1ccccc1 (stereo partly drawn) (Cyclohexanecarbonyl-[Aad](OtBu)[Hyp](Bn)[X2]G[Phg]-NH2)	> 1000
CCCCC(NC(=O)C(CCCC)NC(=O)CNC(=O)C(=O)C(CCC)NC(=O)[C@@H]1C[C@@H](OCc2ccccc2)CN1C(=O)C(NC(=O)C1CCCCC1)C1CCCCC1)C(N)=O (stereo partly drawn) (Cyclohexanecarbonyl-[ξChg][Hyp](Bn)[X2]G[ξNle][ξNle]-NH2)	101 to 1000
CCCC(NC(=O)[C@@H]1C[C@@H](OCc2ccccc2)CN1C(=O)C(NC(=O)C1CCCCC1)C1CCCCC1)C(=O)C(=O)NCC(=O)NC(C(=O)O)c1ccccc1 (stereo partly drawn) (Cyclohexanecarbonyl-[ξChg][Hyp](Bn)[X2]G[ξPhg]-OH)	101 to 1000
CCCCC(NC(=O)[C@@H]1C[C@@H](OCc2ccccc2)CN1C(=O)C(NC(=O)C1CCCCC1)C1CCCCC1)C(=O)C(=O)NCC(=O)NC(C(N)=O)c1ccccc1 (stereo partly drawn) (Cyclohexanecarbonyl-[ξChg][Hyp](Bn)[X4]G[ξPhg]-NH2)	101 to 1000
CCCCC(NC(=O)CNC(=O)C(=O)C(CCC)NC(=O)[C@@H]1C[C@@H](OCc2ccccc2)CN1C(=O)C(NC(=O)CC1CCCCC1)C1CCCCC1)C(N)=O (stereo partly drawn) (Cyclohexylacetyl-[ξChg][Hyp](Bn)[X2]G[ξNle]-NH2)	101 to 1000
CCCCC(NC(=O)C(CCCC)NC(=O)CNC(=O)C(=O)C(CCC)NC(=O)[C@@H]1C[C@@H](OCc2ccccc2)CN1C(=O)C(NC(=O)CC1CCCCC1)C1CCCCC1)C(N)=O (stereo partly drawn) (Cyclohexylacetyl-[ξChg][Hyp](Bn)[X2]G[ξNle][ξNle]-NH2)	101 to 1000
CCCC(NC(=O)[C@@H]1C[C@@H](OCc2ccccc2)CN1C(=O)C(NC(=O)CC1CCCCC1)C1CCCCC1)C(=O)C(=O)NCC(=O)NC(C(=O)O)c1ccccc1 (stereo partly drawn) (Cyclohexylacetyl-[ξChg][Hyp](Bn)[X2]G[ξPhg]-OH)	1 to 100
CCCCC(NC(=O)[C@@H]1C[C@@H](OCc2ccccc2)CN1C(=O)C(NC(=O)CC1CCCCC1)C1CCCCC1)C(=O)C(=O)NCC(=O)NC(C(N)=O)c1ccccc1 (stereo partly drawn) (Cyclohexylacetyl-[ξChg][Hyp](Bn)[X4]G[ξPhg]-NH2)	1 to 100
CCCCC(NC(=O)CNC(=O)C(=O)C(CCC)NC(=O)[C@@H]1C[C@@H](OCC(=O)OC(C)(C)C)CN1C(=O)C(NC(=O)CC1CCCCC1)C1CCCCC1)C(N)=O (stereo partly drawn) (Cyclohexylacetyl-[ξChg][Hyp](CH2CO2tBu)[X2]G[ξNle]-NH2)	> 1000
CCCCC(NC(=O)CNC(=O)C(=O)C(CCC)NC(=O)[C@@H]1C[C@@H](OCC(=O)O)CN1C(=O)C(NC(=O)CC1CCCCC1)C1CCCCC1)C(N)=O (stereo partly drawn) (Cyclohexylacetyl-[ξChg][Hyp](Carboxymethyl)[X2]G[ξNle]-NH2)	> 1000
CCCCC(NC(=O)CNC(=O)C(=O)C(CCC)NC(=O)[C@@H]1C[C@@H](OC(C)(C)C)CN1C(=O)C(NC(=O)CC1CCCCC1)C1CCCCC1)C(N)=O (stereo partly drawn) (Cyclohexylacetyl-[ξChg][Hyp](tBu)[X2]G[ξNle]-NH2)	101 to 1000

Same assay, conditions: Ki* CLASS, Compounds prepared by Solid Phase Synthesis, Table 3

SMILES	Ki [nM]
CCCC(NC(=O)[C@@H]1C[C@@H](OCc2ccccc2)CN1C(=O)[C@H](CCCC(=O)O)NC(=O)C1CCCCC1)C(=O)C(=O)NCC(=O)N[C@H](C(N)=O)c1ccccc1 (stereo partly drawn) (Cyclohexanecarbonyl-[Aad][Hyp](Bn)[X2]G[Phg]-NH2)	101 to 1000

Same assay, conditions: Table 5; HCV NS3/NS4A protease, spectrophotometric assay, 30° C., pH 6.5; read-out: Ki* Range

SMILES	Ki [nM]
CCCC[C@H](NC(=O)[C@@H]1C[C@@H](CCC(C)C)CN1C(=O)[C@@H](NC(=O)OC(C)(C)C)C(C)(C)C)C(=O)C(=O)NCC(=O)NC(C(=O)N(C)C)c1ccccc1 (stereo partly drawn) (Boc-[Tle][Pro(4R-isopentyl)][Nleψ(COCO)]G[ξPhg]-NMe2)	101 to 1000
CCCC(NC(=O)[C@@H]1C[C@@H](CCC(C)C)CN1C(=O)[C@@H](NC(=O)OC(C)(C)C)C(C)(C)C)C(=O)C(=O)NCC(=O)NC(C(=O)N(C)C)c1ccccc1 (stereo partly drawn) (Boc-[Tle][Pro(4R-isopentyl)][X2]G[ξPhg]-NMe2)	101 to 1000
CCCCC(NC(=O)[C@@H]1C[C@@H](CCC(C)C)CN1C(=O)[C@@H](NC(=O)OC(C)(C)C)C(C)(C)C)C(=O)C(=O)NCC(=O)NC(C(=O)N(C)C)c1ccccc1 (stereo partly drawn) (Boc-[Tle][Pro(4R-isopentyl)][X4]G[ξPhg]-NMe2)	101 to 1000
CCC[C@H](NC(=O)[C@@H]1C[C@@H](CCC(C)C)CN1C(=O)[C@@H](NC(=O)OC(C)(C)C)C(C)(C)C)C(=O)C(=O)NCC(=O)NC(C(=O)N(C)C)c1ccccc1 (stereo partly drawn) (Boc-[Tle][Pro(4R-isopentyl)][X12]G[ξPhg]-NMe2)	1 to 100
CCC[C@@H](NC(=O)[C@@H]1C[C@@H](CCC(C)C)CN1C(=O)[C@@H](NC(=O)OC(C)(C)C)C(C)(C)C)C(=O)C(=O)NCC(=O)NC(C(=O)N(C)C)c1ccccc1 (stereo partly drawn) (Boc-[Tle][Pro(4R-isopentyl)][X19]G[ξPhg]-NMe2)	> 1000
CCCC[C@@H](NC(=O)[C@@H]1C[C@@H](CCC(C)C)CN1C(=O)[C@@H](NC(=O)OC(C)(C)C)C(C)(C)C)C(=O)C(=O)NCC(=O)NC(C(=O)N(C)C)c1ccccc1 (stereo partly drawn) (Boc-[Tle][Pro(4R-isopentyl)][X33]G[ξPhg]-NMe2)	> 1000
CCCC[C@H](NC(=O)[C@@H]1[C@@H](OC(C)(C)C)CCN1C(=O)[C@@H](NC(=O)OC(C)(C)C)C(C)(C)C)C(=O)C(=O)NCC(=O)NC(C(=O)N(C)C)c1ccccc1 (stereo partly drawn) (Boc-[Tle][Pro(trans-3-OtBu)][Nleψ(COCO)]G[ξPhg]-NMe2)	> 1000
CCCC(NC(=O)[C@@H]1[C@@H](OC(C)(C)C)CCN1C(=O)[C@@H](NC(=O)OC(C)(C)C)C(C)(C)C)C(=O)C(=O)NCC(=O)NC(C(=O)N(C)C)c1ccccc1 (stereo partly drawn) (Boc-[Tle][Pro(trans-3-OtBu)][X2]G[ξPhg]-NMe2)	> 1000
CCCCC(NC(=O)[C@@H]1[C@@H](OC(C)(C)C)CCN1C(=O)[C@@H](NC(=O)OC(C)(C)C)C(C)(C)C)C(=O)C(=O)NCC(=O)NC(C(=O)N(C)C)c1ccccc1 (stereo partly drawn) (Boc-[Tle][Pro(trans-3-OtBu)][X4]G[ξPhg]-NMe2)	> 1000
CCC[C@H](NC(=O)[C@@H]1[C@@H](OC(C)(C)C)CCN1C(=O)[C@@H](NC(=O)OC(C)(C)C)C(C)(C)C)C(=O)C(=O)NCC(=O)NC(C(=O)N(C)C)c1ccccc1 (stereo partly drawn) (Boc-[Tle][Pro(trans-3-OtBu)][X12]G[ξPhg]-NMe2)	> 1000
CCC[C@@H](NC(=O)[C@@H]1[C@@H](OC(C)(C)C)CCN1C(=O)[C@@H](NC(=O)OC(C)(C)C)C(C)(C)C)C(=O)C(=O)NCC(=O)NC(C(=O)N(C)C)c1ccccc1 (stereo partly drawn) (Boc-[Tle][Pro(trans-3-OtBu)][X19]G[ξPhg]-NMe2)	> 1000
CCCC[C@@H](NC(=O)[C@@H]1[C@@H](OC(C)(C)C)CCN1C(=O)[C@@H](NC(=O)OC(C)(C)C)C(C)(C)C)C(=O)C(=O)NCC(=O)NC(C(=O)N(C)C)c1ccccc1 (stereo partly drawn) (Boc-[Tle][Pro(trans-3-OtBu)][X33]G[ξPhg]-NMe2)	> 1000

Same assay, conditions: Table 6; HCV NS3/NS4A protease, 30° C., pH 6.5; read-out: Ki*

SMILES	Ki [nM]
CN(C)C(=O)[C@@H](NC(=O)CNC(=O)C(=O)C(CC1CCC1)NC(=O)[C@@H]1[C@@H]2[C@H](CN1C(=O)[C@@H](NC(=O)OC(C)(C)C)C(C)(C)O)C2(C)C)c1ccccc1 (stereo partly drawn) (Boc-[Val(3-OH)][Pro(3R,4S-CMe2)][X32]G[Phg]-NMe2)	1 to 100
CN(C)C(=O)C(NC(=O)CNC(=O)C(=O)C(CC1CC1(F)F)NC(=O)[C@@H]1[C@@H]2[C@H](CN1C(=O)C(NC(=O)OC(C)(C)C)C1CCCCC1)C2(C)C)c1ccccc1 (stereo partly drawn) (Boc-[ξChg][Pro(3R,4S-CMe2)][X67]G[ξPhg]-NMe2)	1 to 100
